Measurements as given in PubChem BioAssay AID504832 (National Center for Advancing Translational Sciences (NCATS), 2011).
The campaign covered roughly 310,000 compounds. About 18,000 (5.8%) were called active. This list was built around the results that the source calls inconclusive (neither active nor inactive); the mix of calls is not that of the screen. Calls follow the shape of the dose curve; as a rule, active = well fitted inhibition curve with a large enough effect; inconclusive = small, poorly fitted or top-dose-only effect, or another doubt; inactive = no such curve, though single readings can be large or run the other way. Potencies of inconclusive entries are left out as doubtful fits.

Assay: Primary qHTS for delayed death inhibitors of the malarial parasite plastid, 48 hour incubation
Conditions: P. falciparum luciferase growth in erythrocytes; series mostly up to 28.7 µM; activity change, negative = inhibition: at the top concentration
In short: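 Luciferase-expressing parasites in RBCs, 2% Hct / 0.1% parasitemia final; RPMI 1640 + 0.5% Albumax; 37 C, 5% CO2, one generation; luminescence read-out, lower signal = inhibition.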
% is scaled to controls: 0 for no effect and ±100 for the full control effect; potency is read from the fitted curve at half-maximal effect; tags tell the direction and shape of the fitted curve.

Row | SMILES | activity change, negative = inhibition | Potency
1 | Cc1ccc(OCC(=O)NCc2ccccc2)c([N+](=O)[O-])n1 | inactive: 30.2% | 
2 | CN1CCN(Cc2cc(Cl)c3cccnc3c2OC(=O)c2cccs2)CC1 |  | inconclusive [inhibitor, single point]
3 | O=C(c1cc(S(=O)(=O)N2CCOCC2)ccc1F)N(Cc1nnc(-c2ccccc2Cl)o1)C1CC1 |  | inconclusive [inhibitor, single point]
4 | COc1ccc(C(NC(=O)c2ccco2)c2ccc(OC)c(OC)c2)cc1OC | inactive: -19.8% | 
5 | Cc1ccc(NC(=O)CN(C)C(=O)COc2ncnc3ccc(Br)cc23)cc1 | inactive: -19.6% | 
6 | O=C(O)c1cccc(NC(=O)c2ccc(CN3C(=O)c4ccccc4C3=O)cc2)c1 |  | inconclusive [inhibitor, full curve, poor fit]
7 | O=C(O)c1cc(NC(=O)c2cccc(C(=O)Nc3cc(C(=O)O)cc(C(=O)O)c3)c2)cc(C(=O)O)c1 | inactive: 17% | 
8 | OCC1(Cc2ccc(F)cc2F)CCCN(CCCc2ccccc2)C1 (centres undefined) |  | inconclusive [inhibitor, single point]
9 | CSc1nc(N2CCOCC2)c2c3c(sc2n1)CCCC3 |  | inconclusive [inhibitor, single point]
10 | CCOC(=O)Cc1nnc(NC(=O)c2ccccc2OCC)s1 | inactive: -9.68% | 
11 | CCN1CCCC1CNC(=O)CCNC(=O)c1cc(OC)c(OC)c(OC)c1 (centres undefined) | inactive: -21.2% | 
12 | Cn1c(CC(=O)Nc2ccccc2F)nnc1SCC(=O)NC1=NCCS1 | inactive: 23.2% | 
13 | CCC(C(=O)Nc1cc(C(=O)Nc2cc(C)ccn2)ccc1Cl)c1ccccc1 (centres undefined) |  | active: 8.28 µM
14 | Cc1ccc2cc(C#N)c(NCCNC(=S)NCCCN(C)C)nc2c1C |  | inconclusive [inhibitor, partial curve]
15 | Cc1ccc(/C=N/N(Cc2ccccc2)c2ccccc2)o1 |  | inconclusive [inhibitor, single point]
16 | Cc1cccc(C)c1NC(=O)C(c1ccc(Cl)cc1Cl)N1CCCCC1 (centres undefined) |  | inconclusive [inhibitor, partial curve]
17 | CCOc1ccc(NS(=O)(=O)c2cc(NC(=O)c3ccc(C)cc3)ccc2Cl)cc1 |  | inconclusive [inhibitor, single point]
18 | CCOC(=O)c1cccc(NC(=O)CN(c2ccc(OC)cc2)S(=O)(=O)c2c(C)noc2C)c1 |  | inconclusive [inhibitor, partial curve, poor fit]
19 | COc1ccc(N(CC(O)CN2CCOCC2)S(=O)(=O)c2ccc(C)cc2)cc1 (centres undefined) | inactive: 27.5% | 
20 | Cc1cccc(C(=O)Nc2ccc(C(=O)N/N=C/c3ccc(C)o3)cc2)c1 |  | inconclusive [inhibitor, partial curve, poor fit]
21 | COc1cc(/C=C2/NC(=O)NC2=O)cc(Br)c1OCc1ccccc1 |  | inconclusive [inhibitor, single point]
22 | CCN(CC)S(=O)(=O)c1ccc(N2CCOCC2)c(NC(=O)COc2ccccc2C)c1 |  | active: 1.85 µM
23 | CCOc1ccc(CCNC(=O)CN2C(=O)NC3(CCCCC3)C2=O)cc1OCC | inactive: -6.38% | 

Row | SMILES | activity change, negative = inhibition | Potency
24 | CNc1ccc2nc3ccccc3[n+](C)c2c1 |  | active: 0.165 µM
25 | FC(F)(F)Oc1ccc(Nc2nc(N3CCOCC3)nc(N3CCOCC3)n2)cc1 |  | inconclusive [inhibitor, partial curve]
26 | O=C(Cn1nc(C(=O)O)c2ccccc2c1=O)Nc1cccc(S(=O)(=O)N2CCCC2)c1 | inactive: 16.8% | 
27 | Cc1cc(C)cc(NC(=O)COC(=O)CCCC2=NS(=O)(=O)c3ccccc3N2)c1 | inactive: -3.11% | 
28 | COc1ccccc1CCC(=O)OCC(=O)N1CCN(S(=O)(=O)c2ccc(C)cc2C)CC1 |  | inconclusive [inhibitor, single point]
29 | COc1ccc(-c2cc(C(=O)OCc3ccccn3)c3ccccc3n2)cc1 |  | inconclusive [inhibitor, single point]
30 | CCc1ccccc1NC(=O)c1cccc(Oc2ccc([N+](=O)[O-])cc2Cl)c1 |  | inconclusive [inhibitor, partial curve]
31 | CCOC(=O)c1c(CSc2ccccc2)n(C)c2ccc(O)c(CN3CCN(C)CC3)c12 |  | inconclusive [inhibitor, single point]
32 | Cc1ccc(C(=O)NCC(=O)OCCCOC(=O)CNC(=O)c2ccc(C)cc2)cc1 | inactive: 5.79% | 
33 | c1nc(NC2CCCCCC2)c2[nH]cnc2n1 |  | inconclusive [inhibitor, single point]
34 | N/C(Cn1cncn1)=N\NC(=O)C(=O)Nc1cccc(C(F)(F)F)c1 | inactive: 11.9% | 
35 | Cc1cccc(NC(=O)c2ccc([N+](=O)[O-])s2)c1C |  | active: 2.62 µM
36 | Nc1nc(C23CC4CC(CC(Cl)(C4)C2)C3)cs1 | inactive: 13.1% | 
37 | C=CCn1c(=O)c(CCC(=O)Nc2ccc(N3CCOCC3)cc2)nc2cc(C(F)(F)F)ccc21 |  | inconclusive [inhibitor, partial curve, poor fit]
38 | CC1CCCN(S(=O)(=O)c2ccc(C(=O)Nc3sc4c(c3C(N)=O)CCN(C)C4)cc2)C1 (centres undefined) |  | inconclusive [inhibitor, partial curve, poor fit]
39 | O=S(=O)(Nc1cccc(-c2ccc(N3CCCCCC3)nn2)c1)c1ccccc1Cl | inactive: 25.8% | 
40 | CCOC(=O)CN(C(=O)CSc1nnc(CNc2ccc(C)cc2C)n1CC)c1ccccc1 |  | inconclusive [inhibitor, partial curve]
41 | CCCSc1nc2sc3c(c2c(=O)[nH]1)CCN(Cc1ccccc1)C3 |  | inconclusive [inhibitor, single point]
42 | COc1ccc(NC(=O)CSc2ccc(-c3cccnc3)nn2)cc1 |  | inconclusive [inhibitor, partial curve]
43 | Cc1[nH][nH]c(=O)c1C(c1cc(Br)ccc1O)c1c(C)[nH][nH]c1=O |  | inconclusive [inhibitor, single point]
44 | O=C1NC(=O)N(c2ccc3c(c2)OCO3)C(=O)/C1=C\c1ccc(N2CCCCC2)o1 | inactive: -6.44% | 
45 | Cc1cccc(/C=C2/Sc3ccc(C(=O)NCCN4CCCC4)cc3NC2=O)c1 |  | inconclusive [inhibitor, partial curve]
46 | Nc1ccccc1C(=O)NCCN1CCNC1=O | inactive: 31% | 

Row | SMILES | activity change, negative = inhibition | Potency
47 | Cc1nn(-c2ccccc2)c(C)c1/C=N/NC(=O)CSc1nnc(SCc2ccc(Cl)cc2)s1 | inactive: -19% | 
48 | COc1ccc(CC(=O)N2CCCc3ccccc32)cc1OC |  | inconclusive [inhibitor, single point]
49 | COC(=O)C1=C(C)N(Cc2ccccc2)C(=S)N[C@H]1c1ccc(Br)cc1 |  | inconclusive [inhibitor, partial curve, poor fit]
50 | COc1cc(C2/C(=C(\O)c3cc(C)ccc3C)C(=O)C(=O)N2CCN(C)C)ccc1O (centres undefined) |  | inconclusive [inhibitor, single point]
51 | COc1ccc(NC(=O)CN(c2ccc([N+](=O)[O-])cc2)S(=O)(=O)c2ccccc2)cc1 |  | inconclusive [inhibitor, single point]
52 | CC(=O)Nc1ccc(S(=O)(=O)Oc2ccc(/C=N/NC(=O)c3ccc(Cl)cc3)cc2)cc1 |  | active: 13.1 µM
53 | CCc1cc(=O)oc2cc(C)cc(OC(C)C(=O)NCCCn3ccnc3)c12 (centres undefined) |  | active: 10.4 µM
54 | CCN(CC)C(=O)COCc1cc(-c2ccc3c(c2)OCO3)on1 | inactive: 32.7% | 
55 | Cc1c(CCOC(=O)CC23CC4CC(CC(C)(C4)C2)C3)sc[n+]1Cc1ccc([N+](=O)[O-])cc1 |  | active: 2.62 µM
56 | Cc1ccc(C(=O)NNC(=O)C(NC(=O)c2cccc(C)c2)C(C)C)cc1 (centres undefined) |  | inconclusive [inhibitor, partial curve, poor fit]
57 | COc1cnc(-c2ccccn2)nc1N(C)c1ccccc1 |  | active: 0.928 µM
58 | Cc1cc2nc(-c3ccc(SCc4ccc(C#N)cc4)nc3)[nH]c2cc1C |  | inconclusive [inhibitor, partial curve, poor fit]
59 | C[C@]12CCC(=O)C=C1CC[C@@H]1[C@@H]2[C@@H](O)C[C@@]2(C)[C@H]1CC[C@]2(O)C(=O)COP(=O)(O)O | inactive: 4.61% | 
60 | Cc1cccc(NC(=S)NCc2ccccc2)c1C |  | inconclusive [inhibitor, single point]
61 | O=C(Nc1ccc(Cl)c([N+](=O)[O-])c1)C(Sc1ccccc1)c1ccccc1 (centres undefined) |  | active: 13.1 µM
62 | COCc1cc(C)nc(SCC[N+](C)(C)CC(=O)Nc2ccccc2)c1C#N |  | inconclusive [inhibitor, full curve, poor fit]
63 | CN(C)C(CNC(=O)C1CCN(S(=O)(=O)c2cccc(C(F)(F)F)c2)CC1)c1ccccc1 (centres undefined) |  | inconclusive [inhibitor, partial curve, poor fit]
64 | CC(=O)Nc1ccc(S(=O)(=O)N(C)CC(=O)OCC(=O)N(CC(C)C)C2CCS(=O)(=O)C2)cc1 (centres undefined) | inactive: 36.9% | 
65 | COC(=O)c1sccc1NC(=O)Nc1cc(C)ccc1OC | inactive: -24.7% | 
66 | Cc1ccc(-c2csc(NC3OC(=O)c4ccccc43)n2)cc1 (centres undefined) |  | inconclusive [inhibitor, partial curve, poor fit]
67 | CCOC(=O)C1=C(c2ccccc2)N=c2s/c(=C\c3cc(OC)c(OC)c(OC)c3)c(=O)n2C1c1cccs1 (centres undefined) |  | active: 0.657 µM
68 | Cc1cc2cc(CN(Cc3cccs3)S(=O)(=O)c3ccc4c(c3)OCCO4)c(=O)[nH]c2cc1C | inactive: -0.698% | 
69 | COc1ccc(C2=NN(C(=O)CSC3=NN4CCCC(=O)N=C4S3)C(c3cccc(OC)c3OC)C2)cc1 (centres undefined) |  | inconclusive [inhibitor, partial curve, poor fit]
